Data as given in PMC4336329 (PLoS ONE, 2015).
The whole screen tested about 310,000 compounds, of which about 14,000 (4.5%) showed an effect of 50% or more. The effect is printed as a negative number. This is one part of the list.

Target: human ether-à-go-go-related gene (hERG) potassium channel (human, UniProt Q12809)
Experiment: primary screen, population patch clamp on CHO cells stably expressing hERG
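Further: peak tail current of the secondary pulse compared with the same well before compound.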

Sequence of human ether-à-go-go-related gene (hERG) potassium channel (Q12809 whole entry, looked up): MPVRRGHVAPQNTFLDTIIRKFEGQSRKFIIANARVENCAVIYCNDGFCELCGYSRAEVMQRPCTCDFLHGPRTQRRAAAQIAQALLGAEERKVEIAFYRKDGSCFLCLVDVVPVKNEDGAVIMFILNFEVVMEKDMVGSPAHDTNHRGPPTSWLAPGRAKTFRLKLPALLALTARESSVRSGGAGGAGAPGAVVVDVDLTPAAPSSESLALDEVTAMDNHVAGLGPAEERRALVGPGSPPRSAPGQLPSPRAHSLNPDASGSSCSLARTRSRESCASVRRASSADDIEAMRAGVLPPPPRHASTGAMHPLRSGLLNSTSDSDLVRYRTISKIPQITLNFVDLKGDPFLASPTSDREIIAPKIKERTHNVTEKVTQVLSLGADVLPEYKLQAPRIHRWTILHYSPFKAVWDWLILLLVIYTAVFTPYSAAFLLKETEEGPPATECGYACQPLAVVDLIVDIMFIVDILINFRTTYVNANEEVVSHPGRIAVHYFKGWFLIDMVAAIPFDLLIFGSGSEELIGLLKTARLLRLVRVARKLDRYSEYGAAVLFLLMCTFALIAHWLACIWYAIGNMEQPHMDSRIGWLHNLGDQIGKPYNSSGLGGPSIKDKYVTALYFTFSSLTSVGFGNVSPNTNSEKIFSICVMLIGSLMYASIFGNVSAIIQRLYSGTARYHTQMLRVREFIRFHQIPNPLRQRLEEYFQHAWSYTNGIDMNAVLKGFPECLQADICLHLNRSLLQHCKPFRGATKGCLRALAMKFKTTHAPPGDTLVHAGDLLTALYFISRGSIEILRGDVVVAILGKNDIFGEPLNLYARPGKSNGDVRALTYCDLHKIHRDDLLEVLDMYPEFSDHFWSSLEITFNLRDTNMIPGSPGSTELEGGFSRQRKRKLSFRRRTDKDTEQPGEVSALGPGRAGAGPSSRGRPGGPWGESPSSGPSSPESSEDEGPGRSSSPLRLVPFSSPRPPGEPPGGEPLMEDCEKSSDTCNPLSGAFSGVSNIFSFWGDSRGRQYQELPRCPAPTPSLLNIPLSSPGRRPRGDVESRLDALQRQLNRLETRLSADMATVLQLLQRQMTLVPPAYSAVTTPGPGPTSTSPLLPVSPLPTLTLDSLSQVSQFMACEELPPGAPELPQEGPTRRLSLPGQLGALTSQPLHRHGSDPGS

In order of falling “hERG current change (%, negative = inhibition) at 10uM” value:
1. Cc1occc1-c1nnc(SCCNCCO)o1.O=C(O)C(=O)O  63.6%
2. CC(=O)c1cccc(NC(=O)Cn2cnc(S(=O)(=O)N3CCCC3)c2)c1  23%
3. O=C(O)COC(=O)Cc1ccccc1Nc1c(Cl)cccc1Cl  19.2%
4. CCNCC(O)COCC(O)CNCC (stereo not drawn)  19.2%
5. Cc1ccc(C(CC(=O)O)NC(=O)CN2C(=O)c3ccccc3C2=O)cc1 (stereo not drawn)  18.4%
6. CC[C@H](C)C1NC(=O)[C@H](CC(=O)O)NC(=O)c2cc([N+](=O)[O-])cc(I)c2NCCC(C(N)=O)NC1=O (stereo partly drawn)  18.2%
7. COc1cc(C2c3cc4c(cc3C(OC3OC5COC(c6cccs6)OC5C(O)C3O)C3COC(=O)C23)OCO4)cc(OC)c1O (stereo not drawn)  17.4%
8. O=C(Cc1ccccn1)c1ccc(Cl)cc1  17%
9. O=C(Cc1ccc(Br)cc1)NCc1ccccc1  15.9%
10. CCOC(=O)/C(C#N)=C1/C=C(C)c2ccccc2N1  13.6%
11. Cc1cc(NS(=O)(=O)c2ccc(NC(=O)c3cnc4sccn4c3=O)cc2)nc(C)n1  13.4%
12. CSC1=N/C(=C\C=C\c2cccs2)C(=O)S1  13.4%
13. Cc1ccc(OCCCN2CCOCC2)cc1  13.3%
14. Cc1cccc2[nH]c(SCC(=O)O)nc12  12.7%
15. CCC(=O)OC1(C)C(=O)C=C2C=C(C3CC3)OC=C2C1=O (stereo not drawn)  12.5%
16. O=C(Nc1nnc(Cc2ccccc2)s1)c1cccnc1  11.7%
17. CN(c1nc2ccccc2n2c(C3CC3)nnc12)S(=O)(=O)c1ccccc1  11.5%
18. COC(=O)CC1COc2ccccc2N1S(=O)(=O)c1ccc(Br)cc1 (stereo not drawn)  11.4%
19. CN(C)CCCN1C(=O)C(=O)/C(=C(/O)c2ccncc2)C1c1cccc(Br)c1 (stereo not drawn)  11.3%
20. O=C(CCNc1ccc(Cl)cc1)c1cccs1  11.1%
21. CCC1CCCCN1CC(=O)Nc1ccc2c(c1)OCCO2 (stereo not drawn)  10.6%
22. CN1CCCC(OC(=O)COc2ccccc2)C1.Cl (stereo not drawn)  10.4%
23. O=C(Cc1nc2ccccc2[nH]1)NCc1ccco1  10.4%
24. COc1c(C)cc(NC(=O)c2ccc3c(c2)NC(=O)CO3)cc1C  10%
25. CC(=O)NC(c1ccc([N+](=O)[O-])cc1)c1c(O)ccc2ccccc12 (stereo not drawn)  9.69%
26. OC(CN1CCOCC1)(c1ccccc1)c1ccccn1 (stereo not drawn)  9.52%
27. O=C(O)/C=C/c1coc2ccc(F)cc2c1=O  9.13%
28. COC(=O)CCCC(=O)N1CCC(n2nccc2NC(=O)CCOc2ccccc2)CC1  8.96%
29. c1ccc(CN2CCN(c3nc(-c4ccccc4)nc4ccccc34)CC2)cc1  8.72%
30. CN1CCN(Cc2ccc(Br)s2)CC1  8.42%
31. COC(=O)c1ccc(/C=N/OCC(=O)Nc2cc(F)ccc2F)cc1  8.03%
32. Clc1ccccc1C1NCc2ccccc2-n2cccc21 (stereo not drawn)  7.79%
33. CC1CSc2ccccc2NC1=S (stereo not drawn)  7.67%
34. COc1cccc(C(C(=O)NCc2ccco2)N(Cc2ccco2)C(=O)Cn2nnc3ccccc32)c1 (stereo not drawn)  6.29%
35. CN(C(=O)COC(=O)c1cc(-c2ccc(Cl)s2)nc2ccccc12)C1CCS(=O)(=O)C1 (stereo not drawn)  6.06%
36. CC(=O)c1c(C)[nH]c(C(=O)OC2CCOC2=O)c1C (stereo not drawn)  5.1%
37. Cc1cc(C)cc(N(CC(=O)Nc2cc(C)ccc2C)S(=O)(=O)c2c(C)[nH]c(=O)[nH]c2=O)c1  5.03%
38. Cc1cc(-n2c(C)cc(C(=O)COC(=O)CN=C3NS(=O)(=O)c4ccccc43)c2C)no1  4.85%
39. N#CCSc1nccc(/C=C/c2ccccc2)n1  4.5%
40. Cn1c(/N=C/c2cccs2)nc2ccccc21  3.96%
41. COC(=O)c1ccc(CSc2nc(C)nc3sc(C)c(C)c23)o1  3.87%
42. Cc1cccc(N(CC(=O)NC2CCCC2)C(=O)c2cc3cc4cccc(C)c4nc3s2)c1C  3.27%
43. CC(Sc1nnc(C2CCCCC2)n1N)C(=O)NCc1ccc2c(c1)OCO2 (stereo not drawn)  3.2%
44. O=C(NCC(=O)N1CCCCCCC1)c1ccco1  2.46%
45. CCc1noc(C)c1C(=O)OCC(=O)NCc1ccccc1  2.29%
46. COc1cccc(/C=N/Nc2ccc([N+](=O)[O-])cn2)c1O  2.03%
47. COC(=O)CC1=C(C(=O)OC)C(c2ccc3c(c2)OCO3)C(C#N)=C(N)O1 (stereo not drawn)  1.59%
48. O=C(NCc1cccs1)C(=O)c1c[nH]c2ccccc12  -0.144%
49. Cc1cc2[nH]c(=O)c(=O)[nH]c2cc1S(=O)(=O)Nc1cccc(Cl)c1C  -0.165%
50. CCOC(=O)c1cnn(-c2nc(OCC)cc(OCC)n2)c1C  -0.293%
51. CCC(C)C(NC(=O)c1ccccc1NC(=O)c1ccco1)C(=O)NC1CCCCC1 (stereo not drawn)  -0.295%
52. O=C(Nc1nccs1)C1CCN(S(=O)(=O)c2ccc(Cl)c(C(F)(F)F)c2)CC1  -0.668%
53. Cc1ccc2nsnc2c1S(=O)(=O)NCc1cccnc1  -1.19%
54. Cc1ccc(NC(=O)CSc2nnc(Cc3cccn3C)n2-c2ccc(F)cc2)c(C)c1  -1.67%
55. CC(=O)/C(=N\Nc1cccc(Cl)c1)Sc1nnc(-c2ccccc2)n1-c1ccccc1  -1.85%
56. COC(=O)C(N)Cc1ccc(O)c(O)c1.Cl (stereo not drawn)  -2.08%
57. OC1CC(c2ccco2)NC2(CCCCC2)C1 (stereo not drawn)  -3.62%
58. COc1ccc(C(=O)COC(=O)c2cc3ccccc3oc2=O)c(OC)c1  -3.73%
59. CCOC(=O)C1CCN(S(=O)(=O)c2cc(C(=O)N3CCCCC3)ccc2OC)CC1  -3.81%
60. O=C(CC1S/C(=N/N=C/c2cccs2)NC1=O)Nc1ccc(Cl)cc1 (stereo not drawn)  -3.86%
61. CC(=O)Nc1ccc(NC(=O)CN2CCCC(C)C2)c(Cl)c1 (stereo not drawn)  -5.17%
62. N#CC1=C2N=C(N)c3ccccc3N2C2=C(C(=O)CCC2)C1c1cccc(Cl)c1 (stereo not drawn)  -6.16%
63. O=C(/C=C/c1cccc(Cl)c1)NCc1ccccc1  -6.39%
64. Cc1ccc(C(C)n2cc(C(=O)NCc3ccncc3)nn2)cc1 (stereo not drawn)  -6.72%
65. O=S(=O)(c1ccc(NC(=S)Nc2ccccc2)cc1)N1CCOCC1  -6.94%
66. COc1cc2c(cc1OC)CN(c1ccc([N+](=O)[O-])c(C(F)(F)F)c1)CC2  -8.39%
67. C=CCC(CC=C)(C(=O)O)c1ccccc1  -8.46%
68. Fc1ccccc1CSc1nnc(-c2ccccc2)o1  -9.31%
69. COc1cc(-c2nc3ccccn3c2N)ccc1O  -9.44%
70. CCCC(C)NC(=S)Nc1cc(C)cc(C)c1 (stereo not drawn)  -10.1%
71. O=S(=O)(NC1CCc2ccccc21)c1ccc(S(=O)(=O)N2CCCC2)cc1 (stereo not drawn)  -10.5%
72. Cc1cccc2c1nc(-c1ccccc1)n1cnnc21  -11.6%
73. C/C(Cn1nnc([N+](=O)[O-])n1)=N\NC(=O)c1ccc(C)cc1  -11.6%
74. CCN(CC)S(=O)(=O)c1cccc(N=Nc2sc(N)nc2C)c1  -12.8%
75. COc1cc(C(=O)OCc2cc(=O)c(O)co2)ccc1OC(F)F  -12.9%
76. Cc1nnc(C)n1/N=C/c1cc2ccccc2nc1Cl  -14.3%
77. CN(Cc1ccccc1)C(=O)CSc1cc(=O)n(C)c2ccccc12  -14.6%
78. COc1cc(CCC(=O)OCC(=O)Nc2ncc(Cl)cc2Cl)cc(OC)c1OC  -16.2%
79. COCCOC(=O)/C(=C/c1ccc(OC(=O)c2ccccc2)cc1)C(C)=O  -18%
80. Cc1cccc(OCCCC(=O)Nc2ccc(Cl)c(S(=O)(=O)N3CCOCC3)c2)c1  -18.2%
81. COc1ccc2[nH]c(=O)c(CN(C(=O)c3ccncc3)C(C)C)cc2c1  -20.6%
82. COC(=O)c1ccccc1NC(=O)CC(NCc1ccccc1)C(=O)O (stereo not drawn)  -20.7%
83. O=C(CCc1c[nH]c2ccccc12)OCC(=O)N1CCN(S(=O)(=O)c2ccccc2)CC1  -24.2%
84. CCCCCc1nc2ccccc2c(=O)n1-c1ccccc1[N+](=O)[O-]  -24.5%
85. CN1CCN(c2ccc(-c3cccc(NC(=O)COc4ccccc4)c3)nn2)CC1  -35.9%
86. CCOc1ccc(NC(=O)C2CCCN(c3c(CC)c(C)nc4ncnn34)C2)cc1 (stereo not drawn)  -65.8%
87. O=C(c1ccc2c(c1)OCO2)C1CCCN(C2CCN(CCc3ccccc3)CC2)C1 (stereo not drawn)  -69.3%
88. CSc1cccc(CN2CCN(Cc3ccc(F)c(F)c3)C(CCO)C2)c1 (stereo not drawn)  -69.5%
89. N#C/C(=C\c1c(N2CCC(C(N)=O)CC2)nc2ccccn2c1=O)S(=O)(=O)c1ccc(Cl)cc1  -70.9%
90. O=C(Cn1ccccc1=O)Nc1ccc(Cl)c(S(=O)(=O)N2CCCCC2)c1  -79.4%
